Reference: article PMC9911399, “Two distinct binding modes provide the RNA-binding protein RbFox with extraordinary sequence specificity”
Changes are numbered by the printed parent chain; changes in the protein carry UniProt numbers. The list shows a part of the results.

T1: RBFOX1 RRM RbFoxmut (Fox-RRM*) (Homo sapiens, UniProt Q9NWB1 109-208, R118D;E147R;N151S;E152T)
T1 sequence: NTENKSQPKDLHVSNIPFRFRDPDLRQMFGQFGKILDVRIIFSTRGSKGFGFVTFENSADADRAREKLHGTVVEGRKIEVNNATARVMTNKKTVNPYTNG

B1: GCGAAGG (DNA:RNA)
RNA: GGGAGACCGGAAUUCAGAUUGUCCGCGAAGGUUAAAUCCCGUCGUAGCCACCA
DNA 1: CAATCTGAATTCCGGTCTCCC
DNA 2: TGGTGGCTACGACGGGATT
B2: CUGGAAU (DNA:RNA)
RNA: B1 RNA with G25C, C26U, A28G, G30A, G31U
DNA 1: CAATCTGAATTCCGGTCTCCC
DNA 2: TGGTGGCTACGACGGGATT
B3: AAUCAUG (DNA:RNA)
RNA: B1 RNA with G25A, C26A, G27U, A28C, G30U
DNA 1: CAATCTGAATTCCGGTCTCCC
DNA 2: TGGTGGCTACGACGGGATT
B4: CAGCGCC (DNA:RNA)
RNA: B1 RNA with G25C, C26A, A28C, A29G, G30C, G31C
DNA 1: CAATCTGAATTCCGGTCTCCC
DNA 2: TGGTGGCTACGACGGGATT
B5: GAAAGCA (DNA:RNA)
RNA: B1 RNA with C26A, G27A, A29G, G30C, G31A
DNA 1: CAATCTGAATTCCGGTCTCCC
DNA 2: TGGTGGCTACGACGGGATT
B6: GAAGACC (DNA:RNA)
RNA: B1 RNA with C26A, G27A, A28G, G30C, G31C
DNA 1: CAATCTGAATTCCGGTCTCCC
DNA 2: TGGTGGCTACGACGGGATT
B7: CUGCGAC (DNA:RNA)
RNA: B1 RNA with G25C, C26U, A28C, A29G, G30A, G31C
DNA 1: CAATCTGAATTCCGGTCTCCC
DNA 2: TGGTGGCTACGACGGGATT
B8: GGCUAUA (DNA:RNA)
RNA: B1 RNA with C26G, G27C, A28U, G30U, G31A
DNA 1: CAATCTGAATTCCGGTCTCCC
DNA 2: TGGTGGCTACGACGGGATT
B9: AAUAAGC (DNA:RNA)
RNA: B1 RNA with G25A, C26A, G27U, G31C
DNA 1: CAATCTGAATTCCGGTCTCCC
DNA 2: TGGTGGCTACGACGGGATT
B10: GCCCGCU (DNA:RNA)
RNA: B1 RNA with G27C, A28C, A29G, G30C, G31U
DNA 1: CAATCTGAATTCCGGTCTCCC
DNA 2: TGGTGGCTACGACGGGATT
B11: UCUACGA (DNA:RNA)
RNA: B1 RNA with G25U, G27U, A29C, G31A
DNA 1: CAATCTGAATTCCGGTCTCCC
DNA 2: TGGTGGCTACGACGGGATT
B12: GGCAGCG (DNA:RNA)
RNA: B1 RNA with C26G, G27C, A29G, G30C
DNA 1: CAATCTGAATTCCGGTCTCCC
DNA 2: TGGTGGCTACGACGGGATT
B13: CUGGGUG (DNA:RNA)
RNA: B1 RNA with G25C, C26U, A28G, A29G, G30U
DNA 1: CAATCTGAATTCCGGTCTCCC
DNA 2: TGGTGGCTACGACGGGATT
B14: AGCUUAU (DNA:RNA)
RNA: GGGAGACCGGAAUUCAGAUUGUCCAGCUUAUUUAAAUCCCGUCGUAGCCACCA
DNA 1: CAATCTGAATTCCGGTCTCCC
DNA 2: TGGTGGCTACGACGGGATT
B15: CUAACCC (DNA:RNA)
RNA: B1 RNA with G25C, C26U, G27A, A29C, G30C, G31C
DNA 1: CAATCTGAATTCCGGTCTCCC
DNA 2: TGGTGGCTACGACGGGATT
B16: AUCUCCC (DNA:RNA)
RNA: B14 RNA with G26U, U29C, A30C, U31C
DNA 1: CAATCTGAATTCCGGTCTCCC
DNA 2: TGGTGGCTACGACGGGATT
B17: ACCUCCU (DNA:RNA)
RNA: B14 RNA with G26C, U29C, A30C
DNA 1: CAATCTGAATTCCGGTCTCCC
DNA 2: TGGTGGCTACGACGGGATT
B18: ACUCUUU (DNA:RNA)
RNA: B14 RNA with G26C, C27U, U28C, A30U
DNA 1: CAATCTGAATTCCGGTCTCCC
DNA 2: TGGTGGCTACGACGGGATT
B19: GGCAUGU (DNA:RNA)
RNA: B14 RNA with A25G, U28A, A30G
DNA 1: CAATCTGAATTCCGGTCTCCC
DNA 2: TGGTGGCTACGACGGGATT
B20: CACUUGU (DNA:RNA)
RNA: B14 RNA with A25C, G26A, A30G
DNA 1: CAATCTGAATTCCGGTCTCCC
DNA 2: TGGTGGCTACGACGGGATT

target: T1, RBFOX1 RRM RbFoxmut (Fox-RRM*); assay: EMSA; HiTS-Eq, 1 nM pool, 10 min; buffer printed only for the single-RNA assays: 10 mM Tris pH 7.5, 150 mM NaCl, 3.4 mM EDTA, 0.001% NP-40, 30 C; conditions: tags: His6 N-terminal (pET28a); label: 5' 32P
Method in brief: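 Purified RbFox RRM, wild type or mutant, was incubated for 10 min in 50 µL with 1 nM of a 5′-radiolabelled RNA pool carrying 7 randomized nucleotides, whose flanks were annealed to DNA oligonucleotides, over a series of increasing protein concentrations. Unbound RNA was resolved on 8% native PAGE, cut out, reverse-transcribed, barcoded by PCR and sequenced on an Illumina HiSeq 2500. Relative association constants were derived from changes in read counts for each RNA species versus the control reaction and normalised to the cognate motif.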

Binder	binding signal
B1	0.0954 KA relative to UGCAUGU
B2	0.103 KA relative to UGCAUGU
B3	0.0748 KA relative to UGCAUGU
B4	0.174 KA relative to UGCAUGU
B5	0.121 KA relative to UGCAUGU
B6	0.0506 KA relative to UGCAUGU
B7	0.0896 KA relative to UGCAUGU
B8	0.0958 KA relative to UGCAUGU
B9	0.0725 KA relative to UGCAUGU
B10	0.0828 KA relative to UGCAUGU
B11	0.074 KA relative to UGCAUGU
B12	0.0968 KA relative to UGCAUGU
B13	0.347 KA relative to UGCAUGU
B14	0.132 KA relative to UGCAUGU
B15	0.0661 KA relative to UGCAUGU
B16	0.0711 KA relative to UGCAUGU
B17	0.0601 KA relative to UGCAUGU
B18	0.0808 KA relative to UGCAUGU
B19	0.834 KA relative to UGCAUGU
B20	0.138 KA relative to UGCAUGU
